Experimental data from the supplement of paper PMC4604168 (melanoma cell lines).
This is one part of the list. Many values rest on one well or one pass, so single values are uncertain.

test system: WM451Lu; assay: cell count relative to DMSO control; melanoma cells; higher = more viable cells; settings: library dose: low library concentration; 72 h
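Further: cell number obtained by counting DAPI-stained nuclei in high-throughput microscope images with image analysis software, screen run in 1,536-well plates.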

| Compound | cell count |
| --- | --- |
| CC(=O)c1c(C)c2cnc(Nc3ccc(N4CCNCC4)cn3)nc2n(C2CCCC2)c1=O [palbociclib] + O=S(=O)(c1ccccc1)N(CC(F)(F)F)c1ccc(C(O)(C(F)(F)F)C(F)(F)F)cc1 [T0901317] (first compound 0.04 µM, partner dose 1.4 µM) | 58.9% |
| Nc1ccn([C@@H]2O[C@H](CO)[C@@H](O)C2(F)F)c(=O)n1 [gemcitabine] + Nc1nc(F)nc2c1ncn2[C@@H]1O[C@H](CO)[C@@H](O)[C@@H]1O [fludarabine] (first compound 0.0004 µM, partner dose 0.2 µM) | 54.7% |
| Nc1ncn([C@H]2C[C@H](O)[C@@H](CO)O2)c(=O)n1 [decitabine] + COc1cc(N2CCC(N3CCN(C)CC3)CC2)ccc1Nc1ncc(Cl)c(Nc2ccccc2S(=O)(=O)C(C)C)n1 [NVP-TAE684] (first compound 0.1 µM, partner dose 0.08 µM) | 115% |
| Nc1nc(F)nc2c1ncn2[C@@H]1O[C@H](CO)[C@@H](O)[C@@H]1O [fludarabine] + COc1cc2c(Oc3ccc4[nH]c(C)cc4c3F)ncnc2cc1OCCCN1CCCC1 [cediranib] (first compound 0.2 µM, partner dose 0.4 µM) | 61.7% |
| CO[C@H]1C[C@@H]2CC[C@@H](C)[C@@](O)(O2)C(=O)C(=O)N2CCCC[C@H]2C(=O)O[C@H]([C@H](C)C[C@@H]2CC[C@@H](OCCO)[C@H](OC)C2)CC(=O)[C@H](C)/C=C(\C)[C@@H](O)[C@@H](OC)C(=O)[C@H](C)C[C@H](C)/C=C/C=C/C=C/1C [everolimus] + COc1ccc(Cl)c(Nc2nc3ccccc3nc2NS(=O)(=O)c2cccc(NC(=O)C(C)(C)N)c2)c1 [XL147] (first compound 0.02 µM, partner dose 0.8 µM) | 94.2% |
